Reference: patent US10941208B2, “Anti-MUC16 antibodies” (Regeneron Pharmaceuticals, Inc., priority 2016, dated 2021)

Tested on: OVCAR-3/Luc
Assay: OVCAR-3/Luc xenograft in PBMC-engrafted NSG mice, therapeutic treatment
Type: in vivo
Details: NSG mice with human PBMCs, 10 μg/mouse i.p. 7 d post tumor implantation (therapeutic treatment)
From the text: To assess the in vivo efficacy of the anti-MUC16/anti-CD3 bispecifics in human tumor xenograft studies, NOD scid gamma (NSG) mice (Jackson Laboratories, Bar Harbor, Me.) were pre-implanted with human peripheral blood mononuclear cells (PBMCs; ReachBio LLC., Seattle, Wash.) and then given ascites cells from the human ovarian cancer cell line OVCAR-3 (American Type Tissue Culture, Manassas, Va.) transduced with luciferase (OVCAR-3/Luc). OVCAR-3 cells endogenously express MUC-16.
Briefly, NSG mice were injected intraperitoneally (i.p.) with 5.0×10^6 human PBMCs. 8 d later, 1.5×10^6 ascites cells from the OVCAR-3/Luc cell line, previously passaged in vivo, were administered i.p. to the NSG mice engrafted with PBMCs. In the immediate treatment group, mice were treated i.p. on the day of OVCAR-3/Luc cell implantation with MUC16/CD3 Bispecific antibodies BSMUC16/CD3-001 or BSMUC16/CD3-005, or an isotype control, at a dose of 10 μg/mouse (N=5 mice/treatment group). In the therapeutic dose model, mice were treated i.p. 7 d post tumor implantation with the MUC16/CD3 Bispecific or control antibodies described above, at a dose of 10 μg/mouse (N=5/treatment group).
In all studies, tumor growth was monitored via bioluminescent imaging (BLI). […] Regions of interest were drawn around each cell mass and photon intensities were recorded as photons (p)/sec (s)/cm^2/steradian (sr). […]

B1: BSMUC16/CD3-005: anti-MUC16×CD3 bispecific, modified (chimeric) IgG4 Fc; H1H8767P HCVR (SEQ 18), CD3-VH-G20 (SEQ 1866), common LCVR SEQ 26 (antibody, V domains shown)
VH 1: QVQLVESGGGLVKPGGSLRLSCAASGFTFSNYYMSWVRQAPGKGLEWISYISGRGSTIFYADSVKGRITISRDNAKNSLFLQMNSLRAEDTAVYFCVKDRGGYSPYWGQGTLVTVSS
VH 2: EVQLVESGGGLVQPGRSLRLSCAASGFTFDDYSMHWVRQAPGKGLEWVSGISWNSGSIGYADSVKGRFTISRDNAKNSLYLQMNSLRAEDTALYYCAKYGSGYGKFYYYGMDVWGQGTTVTVSS
VL: [… about 100 residues …]PITFGQGTRLEIK
Fold change in Avg Bioluminescent Radiance [p/s/cm^2/sr] at Day 26 relative to Day 6 (mean ± SD): 0.01 ± 0.02 fold
